In all, about 52,000 compounds went through this assay and about 4,300 (8.3%) were called active. Rule as the data show it: active = survival mostly below about 52% (no sharp cut-off); inactive = mostly above about 56%. The list shows a part of the results.

This is an account of results in PubChem BioAssay AID463173 (ICCB-Longwood Screening Facility, Harvard Medical School, 2010).

In the assay the test system is DeltatarO mutant. The experiment in a line: S. aureus survival, RN4220 and DeltatarO strains – OD600, teichoic acid synthesis inhibitors, primary screen (AID 463173). The note with it: S. aureus RN4220 wild type/DeltatarO growth, OD600, 18 h, hits give low values, screened at 18.75 µg/mL (by protocol).
For the compound `CCS(=O)(=O)c1ncc(Cl)c(C(=O)Nc2ccccc2)n1`, the survival is inactive: 52%.

For `CC(=O)c1ccc(NC(=O)c2ccc(-n3cnnc3)cc2)cc1`, the survival is inactive: 65%.

Turning to `CCC(=O)N1c2ccccc2CC1C(=O)NCc1ccc(N(C)C)cc1` (stereo unspecified), the survival is inactive: 74%.

For the compound `CC(C)C(=O)N(c1nnc(-c2ccncc2)s1)C(C)C`, the survival is inactive: 95%.

Turning to `Cc1ccc(N=C2NC(=O)CC(C(=O)Nc3cc(C(F)(F)F)ccc3Cl)S2)cc1` (stereo unspecified), the survival was inactive: 69%.

As to `Cc1ccc(N(CC(=O)Nc2cc(C)ccc2C)S(=O)(=O)c2c(C)noc2C)cc1`, the survival was inactive: 62%.

For `CCN(CC)c1nc2c(c(=O)n(Cc3ccccc3)c(=O)n2C)n1Cc1ccccc1`, the survival is inactive: 93%.

In the case of `Cc1ccc(C(=O)NCCc2ccc(S(N)(=O)=O)cc2)cc1-n1cnc2cccnc21`, the survival is inactive: 90%.

For the compound `Cc1cccc(C(=O)n2nc(-c3cccnc3)nc2NCc2ccccc2)c1`, the survival is inactive: 94%.

As for `CCn1cc(C(=O)NCCCOC)c(=O)c2cc(S(=O)(=O)N3CCCC3)ccc21`, the survival is inactive: 92%.

In the case of `Cc1ccc(NC(=O)Nc2ccccc2OCc2cc(=O)n3ccccc3n2)c(Cl)c1`, the survival was inactive: 73%.

As to `COC(=O)c1c(NC(=O)Cc2coc3ccc(C(C)C)cc23)sc2c1CCC2`, the survival is inactive: 102%.

With `CCOc1ccc(C(=O)c2oc3ccccc3c2NC(=O)c2cc(-c3ccc(Cl)cc3)on2)cc1`, the survival is inactive: 95%.

Consider `COc1ccc(-c2nnc(SCC(=O)N(C)C3CCCCC3)o2)cc1OC`, for which the survival was inactive: 86%.

With `O=c1oc2c3c(ccc2c2ccccc12)OCN(Cc1ccccc1Cl)C3`, the survival is inactive: 68%.

As for `CN(Cc1ccccc1)c1ncnc2c1nnn2C`, the survival was inactive: 72%.

In the case of `O=S(=O)(NCC(c1ccco1)S(=O)(=O)c1cccs1)c1ccc(Cl)cc1` (stereo unspecified), the survival was inactive: 92%.

As to `CCCn1c(=N)n(CC(=O)C(C)(C)C)c2ccccc21`, the survival is inactive: 91%.

As to `COC(=O)c1sccc1S(=O)(=O)N(CC(=O)Nc1ccccc1F)c1ccccc1`, the survival is inactive: 70%.

For the compound `CCc1nn(CC(=O)N(C)Cc2ccccc2)c(=O)c2cc3sccc3n12`, the survival was inactive: 113%.

For the compound `CC(=O)c1cccc(NS(=O)(=O)c2cc(-c3cnc(C4CC4)o3)ccc2C)c1`, the survival is inactive: 97%.

Turning to `Cc1ccc(CSCCC(=O)NCc2ccc(F)cc2Cl)cc1`, the survival is inactive: 118%.

Consider `CCn1nc(C)c(CCN(C)C(=O)Nc2cc(Cl)ccc2C)c1C`, for which the survival was inactive: 85%.

Consider `COc1ccc(CNC(=O)C(c2cccs2)N(Cc2cccs2)C(=O)Cc2cccs2)cc1` (stereo unspecified), for which the survival is inactive: 80%.

For `CCNC(=O)Cc1ccc(NC(=O)N2CCCCc3ccccc32)cc1`, the survival was inactive: 74%.

Turning to `CCN(CC)c1nn2c(=O)c(C(=O)NCc3ccc(F)cc3)cnc2s1`, the survival is inactive: 92%.

As for `CCCn1c2ccccc2c2cnn(CC(=O)NCCc3ccc(OC)cc3OC)c(=O)c21`, the survival is inactive: 88%.

Turning to `Cc1nc(-c2ccccc2)sc1CCNS(=O)(=O)c1ccc(Br)cc1`, the survival is inactive: 119%.

Turning to `COc1ccccc1CCNC(=O)C(=O)NCC(c1ccco1)S(=O)(=O)c1ccc(C)cc1` (stereo unspecified), the survival was inactive: 126%.

Regarding `O=C(O)CSc1ccc(Oc2ccc(SCC(=O)O)cc2)cc1`, the survival was inactive: 102%.

As to `Cc1cc(C)c(S(=O)(=O)NCC(c2cccs2)S(=O)(=O)c2ccccc2)c(C)c1` (stereo unspecified), the survival is inactive: 144%.

For `Cc1ccc(NCc2nc3ccccc3n2CCOc2ccccc2)cc1`, the survival is active: 3%.

As to `CCCCn1c(CNC(=O)c2ccc(OC)cc2)nnc1SCC(=O)Nc1ccc(OC)cc1`, the survival was inactive: 76%.

Take `Cc1cc(NC(=O)Nc2nc3c(s2)CCCCCC3)ccc1Br`: the survival was inactive: 99%.

Consider `CCC(=O)N1CCc2cc(S(=O)(=O)CCC(=O)NCc3ccccc3OC)ccc21`, for which the survival was inactive: 81%.

Consider `Cc1ccc(CNC(=O)CCS(=O)(=O)c2cc(Br)cc3c2N(C(=O)C2CC2)CC3)cc1`, for which the survival was inactive: 131%.

Turning to `O=C(Nc1ccc(Cl)cc1)N1CCN(c2ccc3nnc(-c4ccc(F)cc4)n3n2)CC1`, the survival is inactive: 68%.

On to `CC1CCN(c2ccc(-c3nc(C(C)C)no3)cc2[N+](=O)[O-])CC1`, for which the survival is inactive: 48%.

For `N#Cc1ccccc1CSc1nc(N)cc(N)n1`, the survival was inactive: 106%.

For the compound `CCN(CC)CCNC(=O)c1ccc(Cn2c(=O)c3cccn3c3cccnc32)cc1`, the survival was inactive: 65%.

For the compound `Cc1ccc(-n2ncc(C(=O)NCCc3ccsc3)c2C2CCN(C(=O)OC(C)(C)C)CC2)cc1C`, the survival is inactive: 77%.

In the case of `Cc1nc2ccccc2c(=O)n1-c1ccc(NC(=O)C(F)(F)F)cc1`, the survival was inactive: 74%.

As to `Cc1cc(NC(=O)CSc2ncc(C(=O)Nc3ccc(F)cc3)c(=O)n2C)no1`, the survival is inactive: 80%.

For the compound `COc1ccc2nc3oc(C(=O)NCc4ccccc4OC)cc3cc2c1`, the survival was inactive: 103%.

Consider `NC(=O)CSc1ncc2c(n1)-c1ccccc1N(Cc1cccc(F)c1)S2(=O)=O`, for which the survival is inactive: 100%.

On to `COc1ccccc1-c1nnc(C2CCN(C(=O)c3ccc(C)cc3)CC2)o1`, for which the survival was inactive: 91%.

For the compound `COc1ccc(-c2noc(-c3nnn(-c4cc(C)ccc4C)c3N)n2)cc1`, the survival is inactive: 81%.

Consider `CC1(C)CC(=O)c2c(oc3c(Cl)cc(NS(=O)(=O)c4ccc(Cl)cc4)cc23)C1`, for which the survival was inactive: 64%.

With `CN(C)S(=O)(=O)c1ccc2c(c1)N(CC(=O)N1CCN(c3ccc(F)cc3)CC1)CCS2`, the survival was inactive: 94%.

As for `N#C/C(=C\c1cn(Cc2ccc(C#N)cc2)c2ccccc12)C(=O)NCc1ccco1`, the survival is inactive: 67%.

On to `C=Cc1ccc(Cn2c(C(=O)O)c(CNCc3cc(Br)ccc3OC)c3ccc(C)cc32)cc1`, for which the survival is inactive: 97%.

On to `Cc1cccc(N2CCN(C(=O)CS(=O)(=O)c3cccc4nsnc34)CC2C)c1` (stereo unspecified), for which the survival was inactive: 67%.

Regarding `CCCN1C(=O)C2(c3ccccc31)c1c(oc3ccccc3c1=O)C(=O)N2CCO` (stereo unspecified), the survival is inactive: 93%.

In the case of `O=C(CC(NCc1cccnc1)C(=O)O)Nc1ccc(F)cc1` (stereo unspecified), the survival is inactive: 77%.

Regarding `O=c1oc2ccc(Br)cc2cc1-c1csc(-c2ccc(Cl)cc2)n1`, the survival was inactive: 94%.

For `CCCNC(=O)c1ccc(-n2c(-c3ccccc3)cc3c2CCC(C)C3)cc1` (stereo unspecified), the survival is inactive: 95%.

On to `CCOc1ccccc1NC(=O)c1c(NCc2sccc2C)sc2c1CCCCC2`, for which the survival was inactive: 95%.

For `CS(=O)(=O)N(CC(=O)N1CCCCC1)Cc1ccccc1`, the survival is inactive: 88%.

Consider `O=S(=O)(Nc1ccc(Cl)cc1)c1ccc(NS(=O)(=O)c2ccc3c(c2)OCCO3)cc1`, for which the survival is active: 38%.

Turning to `Cc1ccc(CN(C(=O)COc2cccc([N+](=O)[O-])c2)c2ccccn2)o1`, the survival was inactive: 62%.

Turning to `CCC(=O)N1CCc2cc(Br)cc(S(=O)(=O)N3CCCC(C(=O)Nc4ccc(OC)c(Cl)c4)C3)c21` (stereo unspecified), the survival was inactive: 92%.

In the case of `COc1cc2ccccc2cc1C(=O)Nc1cccc(-c2nc3cc(C)c(C)cc3o2)c1C`, the survival is active: 45%.

Regarding `COc1ccc2oc(=O)c(C(=O)NCCc3c(C)[nH]c4c(Cl)cccc34)cc2c1`, the survival is inactive: 62%.

`O=C(Nc1cccc(Cl)c1Cl)c1ccc2c(c1)N(Cc1cccc(Cl)c1)C(=O)c1ccccc1S2(=O)=O`: the survival was inactive: 108%.

As to `Cc1nc2nc(NCc3cccc(Br)c3)[nH]n2c(=O)c1Cc1ccccc1`, the survival is inactive: 54%.

For the compound `CCOc1ccc(OCC)c(NC(=O)Cn2ncc3c4ccccc4n(Cc4ccccc4)c3c2=O)c1`, the survival is inactive: 94%.

Consider `Cn1ccc2cc(S(=O)(=O)N3CCCN(C(=O)Nc4ccccc4Br)CC3)ccc21`, for which the survival is inactive: 67%.

Regarding `CCC1CN(C(=O)N2CCC(C(=O)NCCN(C)C)CC2)c2ccccc2O1` (stereo unspecified), the survival was inactive: 82%.

Consider `CCOc1ccccc1NC(=O)CC1SC(=N)N(c2ccccc2)C1=O` (stereo unspecified), for which the survival was inactive: 85%.

For the compound `Cc1ccc(NC(=O)c2cnc(SCC(=O)N3CCOCC3)n(C)c2=O)cc1`, the survival is inactive: 67%.

`CCNc1nc(NCC)nc(N(C)N)n1`: the survival is inactive: 71%.

For the compound `COc1cc(-c2noc(-c3ccc(NCc4cccnc4)c([N+](=O)[O-])c3)n2)cc(OC)c1OC`, the survival is inactive: 106%.

For the compound `COc1ccc(OC)c(CNC(=O)CCCn2ccc3cc(S(=O)(=O)N4CCCC4)ccc32)c1`, the survival is inactive: 89%.

In the case of `O=C(CSc1nccn1-c1ccccc1)Nc1nc2ccccc2s1`, the survival is inactive: 99%.

`CCOc1ccc(CCNC(=O)CCCn2nc(C)c3sc4ccccc4c3c2=O)cc1OCC`: the survival was inactive: 96%.

`CCOc1ccc(CNC(=O)CCC(=O)N2CC(C)Sc3ccccc32)cc1` (stereo unspecified): the survival is inactive: 56%.

With `COC(=O)CC1c2cc(OC)c(OC)cc2CCN1C(=O)Nc1ccc(C)cc1Cl` (stereo unspecified), the survival was inactive: 82%.

In the case of `COc1ccccc1Nc1nn2c(=O)c3ccc(C(=O)NCCCOC(C)C)cc3nc2s1`, the survival was inactive: 71%.

Turning to `C=CCNC(=O)Cn1nc(-c2ccccc2F)ccc1=O`, the survival was inactive: 101%.

For the compound `N#C/C(=C/c1cn(Cc2ccc(F)cc2)c2ccccc12)C(=O)Nc1cccc(Cl)c1`, the survival was inactive: 92%.

For the compound `COc1cc(C(=O)Oc2c(Sc3ccc(C)cc3)c(C)nn2-c2ccccc2)cc(OC)c1OC`, the survival is inactive: 109%.

With `Nc1ccc(C(=O)N2CCCC2)cc1`, the survival is inactive: 87%.

Turning to `CCNC(=O)c1cnc2sc(N3CCCCCC3)nn2c1=O`, the survival was inactive: 81%.

For the compound `O=C1c2ccccc2C(=O)N1CC(O)COC1CCCCC1` (stereo unspecified), the survival was inactive: 81%.

On to `COC(=O)c1c(C)sc(-c2c(-c3ccc4c(c3)OCCO4)[nH]c3c2c(=O)n(C)c(=O)n3C)c1O`, for which the survival is active: 43%.

Take `COc1ccc(NC(=O)/C(C#N)=C/C=C/c2ccco2)cc1`: the survival is inactive: 60%.

On to `COc1cccc(NC(=O)CN(C)S(=O)(=O)c2ccc3nc(C)sc3c2)c1`, for which the survival was inactive: 84%.

Turning to `COc1ccc(C)cc1N(C)C(=O)c1c(C)oc2ncnc(N3CCOCC3)c12`, the survival was inactive: 88%.

As to `CC1CC2(NC(=O)NC2=O)C(C)CN1C` (stereo unspecified), the survival is inactive: 82%.

Turning to `CN(c1ccc(Cl)cc1)S(=O)(=O)c1nnc(NC(=O)C2CCCCC2)s1`, the survival was inactive: 106%.

On to `O=C1Cc2ccccc2CC(=O)N1`, for which the survival was inactive: 100%.
